± gives the standard deviation of the averaged measurements. Some of the results follow.
The sequences below were run on PfAP2-I AP2 domain 3 (GST-tagged) (assay: gcPBM binding intensity (ln(normalized median fluorescence intensity)); higher = stronger DNA binding).
Procedure, shortened: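 Binding of GST-tagged P. falciparum DNA-binding domains, expressed in E. coli and used at about 25 μg on average, was carried out for 1 h in 1× PBS containing 1% milk, 0.2 mg/ml BSA, 0.5% salmon testes DNA and 0.03% Triton X-100. The target was an Agilent 4 × 180k array of primer-extended double-stranded 36-bp intergenic genomic probes plus negative controls, read with Alexa488 anti-GST antibody at 488 nm. Binding intensity is the highest Masliner-normalised natural-log median intensity across replicate spots of either probe orientation.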

Row | Sequence | gcPBM binding intensity (ln)
1 | CATACAGACATACATACACACATACCTATAAATATA [CACACA_site6995] | 7.95 ± 0.39
2 | AAATGAAATAAAATCATATATTTATAATTATTATAA [TGCATGCA_negctrl_site612] | 7.27 ± 0.41
3 | AGGAAAAAAGAAAAAACACACATAAATATATATATA [CACACA_site3085] | 9.045 ± 0.021
4 | AAAAAACACGCACATACACACAAAAATGTTATAAAT [CACACA_site6188] | 8.2 ± 0.38
5 | ATCTCATAAAACCGCACACACATAAAATTTGCATTA [CACACA_site3891] | 8.56 ± 0.31
6 | TTATATTTTTTAATTACACACAATTTTTATAAATAT [CACACA_site4148] | 7.69 ± 0.45
7 | CTAGTAAAAAATGCAAGTACATACATTATAAGTATA [XGTACX_site3908] | 7.67 ± 0.47
8 | ATATTGGAGCACAACACACACAAGTATAAATATGGA [CACACA_site6834] | 8.39 ± 0.15
9 | ATTTCATATACAAATTGTACATACAATTTTATGTTT [XGTACX_site3240] | 7.7 ± 0.54
10 | TTAAAAATAATATTATGTACTAAGAATAAATATATA [XGTACX_site3100] | 7.62 ± 0.4
11 | TCTTGTAAATATATGTGTATATTATATTTTATTATA [TGCATGCA_negctrl_site117] | 7.41 ± 0.48
12 | TGTTAAAATAAAATCTATTACATTTTTATGGTTATA [XGTACX_negctrl_site525] | 7.18 ± 0.46
13 | TGCAAGGAAAAACACACACACACATAAATGTATATA [CACACA_site751] | 7.66 ± 0.45
14 | CTTAATATTCTTTAAAGTACACAAAATAAGAATATA [XGTACX_site5489] | 7.79 ± 0.21
15 | AATATATATATATTCACACATAAAAAAGTAAAAAAA [CACACA_site5040] | 7.83 ± 0.71
16 | CACACGCACGAACACACACACACACGCATATAAATA [CACACA_site6302] | 8.54 ± 0.2
17 | TATCTCATAGTATACACACACACACCCACCCATATA [CACACA_site1739] | 8.38 ± 0.54
18 | AGCTCTTGTCATTTTGCACACACACCCGTATAGGTT [CACACA_site3056] | 9.535 ± 0.078
19 | TCTTTTTTTTTTAAACGTACATTGCATTATCACGTA [XGTACX_site6873] | 8.53 ± 0.68
20 | ATCCATTATTTTTGTTGTACGGGTAACTTTAAAAAG [XGTACX_site2226] | 8.05 ± 0.48
21 | AAAAGGGAAATAAAATAAAAAAAGAAACATATATAG [CACACA_negctrl_site455] | 7.72 ± 0.76
22 | GATTCTTCACCGTACTCACACATATATATATATATA [CACACA_site5665] | 9.41 ± 0.29

Row | Sequence | gcPBM binding intensity (ln)
23 | TAATTATATGTATACACACACATACATTTACATAAC [CACACA_site3238] | 7.94 ± 0.59
24 | TTAATTTCTATATACGCATGTATGAATAAGATATTG [TGCATGCA_site202] | 7.42 ± 0.49
25 | ATTTTTTTATAAGAAAATTTCTAACGTTAAAAAAAA [CACACA_negctrl_site1367] | 7.51 ± 0.53
26 | CAAACAAACAAATATACACACTTTTGTATAAAGTAA [CACACA_site5860] | 7.42 ± 0.49
27 | TATAATTATATATATAGTACAGATTTGTTATGTTTA [XGTACX_site7724] | 7.54 ± 0.26
28 | TATCATTTCATATCAAGTACAAACATTTTACATATA [XGTACX_site5307] | 7.84 ± 0.57
29 | TTTTAATTAAGACACACACACACATATAAATATGTA [CACACA_site7144] | 8.12 ± 0.35
30 | ATAATAATATATATTGTACACACAAAATGGGAAAAA [CACACA_site8568] | 8.16 ± 0.66
31 | TATATATATATAATAGTGCATAAATAAATATATAAA | 11.2 ± 0.45
32 | ATTAAGACACATTGCACACGTGCACCCATAGAAAAA [CACACA_site408] | 11.02 ± 0.099
33 | TGAAAAAGGAAAAAAAAAAAAAAAAAAAAAACGAAA [GTGCAC_negctrl_site555] | 7.5 ± 0.52
34 | TATTTATTATTAAGATGTACATAAAACACTGAATAA [XGTACX_site4246] | 8.16 ± 0.12
35 | GACCATATGAATAATGCACACGTTTTAAAATATTAA [CACACA_site5312] | 10.6 ± 0.51
36 | GGGAAAATATTTGGGTGTACAAACAAATTAGCTAGC [XGTACX_site6795] | 8.21 ± 0.49
37 | TATGATTTCACATAATGTACTTGCTAATTCGTGAAT [XGTACX_site1408] | 7.51 ± 0.54
38 | ATATAAATAAACAGGTGTACTATAATGTTCATAGTA [XGTACX_site1553] | 7.84 ± 0.57
39 | AAGAAAATATAAAATGCACACTATAAATTGTATTTA [CACACA_site4257] | 8.75 ± 0.16
40 | TAATTATATATATATGCATGTTATAATTTTTATTTT [TGCATGCA_site78] | 7.68 ± 0.59
41 | TCTTTAACAAGTTAAACACACATACATAAATACATA [CACACA_site5406] | 7.76 ± 0.5
42 | TTATGTCATAAATGCACACATATACATTGTTTTGAT [CACACA_site646] | 9.74 ± 0.27
43 | TATTATAAAAATATTCAGATACATTAACTTACTTTT [XGTACX_negctrl_site4] | 7.17 ± 0.52
44 | TATTTGCTACATATATGTACTAAAAACTTTTTGCTT [XGTACX_site2362] | 7.83 ± 0.45

— the supplement of paper PMC11417369
